Source: the supplement of paper PMC11876631
± gives the standard deviation of the averaged measurements. Laboratory Escherichia coli strains with one amino-acid change in an essential protein, pooled on minimal glucose agar with carbenicillin or gentamicin at twice the control MIC (plus kanamycin and chloramphenicol for the plasmids), 48 h. Fold change of barcode share against drug-free plates; higher = less susceptible. Active = above 20 in both replicates (the paper's putatively resistant). '<' = one read or none on drug, '>' = one read or none on a drug-free plate. Shares are relative, so most strains fall below 1 when a few take over. Listed are strains with at least 15 reads on both drug-free plates, and hits; most hits rest on fewer reference reads. Replicate rank correlation about 0.5. Edits are read from barcodes.

Target: Escherichia coli (laboratory strain)
Assay: barcode share on antibiotic plates over drug-free plates; higher = less susceptible
Experimental: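 A pool of E. coli strains, each edited to carry one amino-acid change in an essential protein, was grown for 48 h on minimal glucose agar with or without antibiotic; strain barcodes were sequenced; mean of two replicates.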

[1] = antibiotic: carbenicillin, 2× MIC (3.1 µg/mL)
[2] = antibiotic: gentamicin, 2× MIC (MIC 0.45 µg/mL)

| Protein | fold change of barcode share [1] | fold change of barcode share [2] |
| --- | --- | --- |
| ffh V172A (protein) MFDNLTDRLSRTLRNISGRGRLTEDNVKDTLREVRMALLEADVALPVVREFINRVKEKAVGHEVNKSLTPGQEFVKIVRNELVAAMGEENQTLNLAAQPPAVVLMAGLQGAGKTTSVGKLGKFLREKHKKKVLVVSADVYRPAAIKQLETLAEQVGVDFFPSDVGQKPVDIANAALKEAKLKFYDVLLVDTAGRLHVDEAMMDEIKQVHASINPVETLFVVDAMTGQDAANTAKAFNEALPLTGVVLTKVDGDARGGAALSIRHITGKPIKFLGVGEKTEALEPFHPDRIASRILGMGDVLSLIEDIESKVDRAQAEKLASKLKKGDGFDLNDFLEQLRQMKNMGGMASLMGKLPGMGQIPDNVKSQMDDKVLVRMEAIINSMTMKERAKPEIIKGSRKRRIAAGCGMQVQDVNRLLKQFDDMQRMMKKMKKGGMAKMMRSMKGMMPPGFPGR | 0.248 ± 0.029 | < 0.00315 |
| ffh V172W (protein) MFDNLTDRLSRTLRNISGRGRLTEDNVKDTLREVRMALLEADVALPVVREFINRVKEKAVGHEVNKSLTPGQEFVKIVRNELVAAMGEENQTLNLAAQPPAVVLMAGLQGAGKTTSVGKLGKFLREKHKKKVLVVSADVYRPAAIKQLETLAEQVGVDFFPSDVGQKPVDIWNAALKEAKLKFYDVLLVDTAGRLHVDEAMMDEIKQVHASINPVETLFVVDAMTGQDAANTAKAFNEALPLTGVVLTKVDGDARGGAALSIRHITGKPIKFLGVGEKTEALEPFHPDRIASRILGMGDVLSLIEDIESKVDRAQAEKLASKLKKGDGFDLNDFLEQLRQMKNMGGMASLMGKLPGMGQIPDNVKSQMDDKVLVRMEAIINSMTMKERAKPEIIKGSRKRRIAAGCGMQVQDVNRLLKQFDDMQRMMKKMKKGGMAKMMRSMKGMMPPGFPGR | 0.34 ± 0.059 | 0.00453 ± 0.0015 |
| ffh V172Q (protein) MFDNLTDRLSRTLRNISGRGRLTEDNVKDTLREVRMALLEADVALPVVREFINRVKEKAVGHEVNKSLTPGQEFVKIVRNELVAAMGEENQTLNLAAQPPAVVLMAGLQGAGKTTSVGKLGKFLREKHKKKVLVVSADVYRPAAIKQLETLAEQVGVDFFPSDVGQKPVDIQNAALKEAKLKFYDVLLVDTAGRLHVDEAMMDEIKQVHASINPVETLFVVDAMTGQDAANTAKAFNEALPLTGVVLTKVDGDARGGAALSIRHITGKPIKFLGVGEKTEALEPFHPDRIASRILGMGDVLSLIEDIESKVDRAQAEKLASKLKKGDGFDLNDFLEQLRQMKNMGGMASLMGKLPGMGQIPDNVKSQMDDKVLVRMEAIINSMTMKERAKPEIIKGSRKRRIAAGCGMQVQDVNRLLKQFDDMQRMMKKMKKGGMAKMMRSMKGMMPPGFPGR | 0.209 ± 0.047 | 0.00695 ± 0.0065 |
| ffh V172P (protein) MFDNLTDRLSRTLRNISGRGRLTEDNVKDTLREVRMALLEADVALPVVREFINRVKEKAVGHEVNKSLTPGQEFVKIVRNELVAAMGEENQTLNLAAQPPAVVLMAGLQGAGKTTSVGKLGKFLREKHKKKVLVVSADVYRPAAIKQLETLAEQVGVDFFPSDVGQKPVDIPNAALKEAKLKFYDVLLVDTAGRLHVDEAMMDEIKQVHASINPVETLFVVDAMTGQDAANTAKAFNEALPLTGVVLTKVDGDARGGAALSIRHITGKPIKFLGVGEKTEALEPFHPDRIASRILGMGDVLSLIEDIESKVDRAQAEKLASKLKKGDGFDLNDFLEQLRQMKNMGGMASLMGKLPGMGQIPDNVKSQMDDKVLVRMEAIINSMTMKERAKPEIIKGSRKRRIAAGCGMQVQDVNRLLKQFDDMQRMMKKMKKGGMAKMMRSMKGMMPPGFPGR | 0.34 ± 0.051 | 0.00441 ± 0.0024 |
| ffh L187A (protein) MFDNLTDRLSRTLRNISGRGRLTEDNVKDTLREVRMALLEADVALPVVREFINRVKEKAVGHEVNKSLTPGQEFVKIVRNELVAAMGEENQTLNLAAQPPAVVLMAGLQGAGKTTSVGKLGKFLREKHKKKVLVVSADVYRPAAIKQLETLAEQVGVDFFPSDVGQKPVDIVNAALKEAKLKFYDVALVDTAGRLHVDEAMMDEIKQVHASINPVETLFVVDAMTGQDAANTAKAFNEALPLTGVVLTKVDGDARGGAALSIRHITGKPIKFLGVGEKTEALEPFHPDRIASRILGMGDVLSLIEDIESKVDRAQAEKLASKLKKGDGFDLNDFLEQLRQMKNMGGMASLMGKLPGMGQIPDNVKSQMDDKVLVRMEAIINSMTMKERAKPEIIKGSRKRRIAAGCGMQVQDVNRLLKQFDDMQRMMKKMKKGGMAKMMRSMKGMMPPGFPGR | 0.2677 ± 0.0015 | 0.0198 ± 0.022 |
| ffh V103A (protein) MFDNLTDRLSRTLRNISGRGRLTEDNVKDTLREVRMALLEADVALPVVREFINRVKEKAVGHEVNKSLTPGQEFVKIVRNELVAAMGEENQTLNLAAQPPAVALMAGLQGAGKTTSVGKLGKFLREKHKKKVLVVSADVYRPAAIKQLETLAEQVGVDFFPSDVGQKPVDIVNAALKEAKLKFYDVLLVDTAGRLHVDEAMMDEIKQVHASINPVETLFVVDAMTGQDAANTAKAFNEALPLTGVVLTKVDGDARGGAALSIRHITGKPIKFLGVGEKTEALEPFHPDRIASRILGMGDVLSLIEDIESKVDRAQAEKLASKLKKGDGFDLNDFLEQLRQMKNMGGMASLMGKLPGMGQIPDNVKSQMDDKVLVRMEAIINSMTMKERAKPEIIKGSRKRRIAAGCGMQVQDVNRLLKQFDDMQRMMKKMKKGGMAKMMRSMKGMMPPGFPGR | 0.39 ± 0.069 | 0.00694 ± 0.0021 |
| ffh V103W (protein) MFDNLTDRLSRTLRNISGRGRLTEDNVKDTLREVRMALLEADVALPVVREFINRVKEKAVGHEVNKSLTPGQEFVKIVRNELVAAMGEENQTLNLAAQPPAVWLMAGLQGAGKTTSVGKLGKFLREKHKKKVLVVSADVYRPAAIKQLETLAEQVGVDFFPSDVGQKPVDIVNAALKEAKLKFYDVLLVDTAGRLHVDEAMMDEIKQVHASINPVETLFVVDAMTGQDAANTAKAFNEALPLTGVVLTKVDGDARGGAALSIRHITGKPIKFLGVGEKTEALEPFHPDRIASRILGMGDVLSLIEDIESKVDRAQAEKLASKLKKGDGFDLNDFLEQLRQMKNMGGMASLMGKLPGMGQIPDNVKSQMDDKVLVRMEAIINSMTMKERAKPEIIKGSRKRRIAAGCGMQVQDVNRLLKQFDDMQRMMKKMKKGGMAKMMRSMKGMMPPGFPGR | 0.502 ± 0.069 | 0.295 ± 0.34 |
| ffh V103Q (protein) MFDNLTDRLSRTLRNISGRGRLTEDNVKDTLREVRMALLEADVALPVVREFINRVKEKAVGHEVNKSLTPGQEFVKIVRNELVAAMGEENQTLNLAAQPPAVQLMAGLQGAGKTTSVGKLGKFLREKHKKKVLVVSADVYRPAAIKQLETLAEQVGVDFFPSDVGQKPVDIVNAALKEAKLKFYDVLLVDTAGRLHVDEAMMDEIKQVHASINPVETLFVVDAMTGQDAANTAKAFNEALPLTGVVLTKVDGDARGGAALSIRHITGKPIKFLGVGEKTEALEPFHPDRIASRILGMGDVLSLIEDIESKVDRAQAEKLASKLKKGDGFDLNDFLEQLRQMKNMGGMASLMGKLPGMGQIPDNVKSQMDDKVLVRMEAIINSMTMKERAKPEIIKGSRKRRIAAGCGMQVQDVNRLLKQFDDMQRMMKKMKKGGMAKMMRSMKGMMPPGFPGR | 0.322 ± 0.079 | 0.00618 ± 0.0033 |
| ffh V186A (protein) MFDNLTDRLSRTLRNISGRGRLTEDNVKDTLREVRMALLEADVALPVVREFINRVKEKAVGHEVNKSLTPGQEFVKIVRNELVAAMGEENQTLNLAAQPPAVVLMAGLQGAGKTTSVGKLGKFLREKHKKKVLVVSADVYRPAAIKQLETLAEQVGVDFFPSDVGQKPVDIVNAALKEAKLKFYDALLVDTAGRLHVDEAMMDEIKQVHASINPVETLFVVDAMTGQDAANTAKAFNEALPLTGVVLTKVDGDARGGAALSIRHITGKPIKFLGVGEKTEALEPFHPDRIASRILGMGDVLSLIEDIESKVDRAQAEKLASKLKKGDGFDLNDFLEQLRQMKNMGGMASLMGKLPGMGQIPDNVKSQMDDKVLVRMEAIINSMTMKERAKPEIIKGSRKRRIAAGCGMQVQDVNRLLKQFDDMQRMMKKMKKGGMAKMMRSMKGMMPPGFPGR | 0.255 ± 0.044 | 0.012 ± 0.011 |
| ffh V186W (protein) MFDNLTDRLSRTLRNISGRGRLTEDNVKDTLREVRMALLEADVALPVVREFINRVKEKAVGHEVNKSLTPGQEFVKIVRNELVAAMGEENQTLNLAAQPPAVVLMAGLQGAGKTTSVGKLGKFLREKHKKKVLVVSADVYRPAAIKQLETLAEQVGVDFFPSDVGQKPVDIVNAALKEAKLKFYDWLLVDTAGRLHVDEAMMDEIKQVHASINPVETLFVVDAMTGQDAANTAKAFNEALPLTGVVLTKVDGDARGGAALSIRHITGKPIKFLGVGEKTEALEPFHPDRIASRILGMGDVLSLIEDIESKVDRAQAEKLASKLKKGDGFDLNDFLEQLRQMKNMGGMASLMGKLPGMGQIPDNVKSQMDDKVLVRMEAIINSMTMKERAKPEIIKGSRKRRIAAGCGMQVQDVNRLLKQFDDMQRMMKKMKKGGMAKMMRSMKGMMPPGFPGR | 0.335 ± 0.14 | < 0.00553 |
| ffh V186Q (protein) MFDNLTDRLSRTLRNISGRGRLTEDNVKDTLREVRMALLEADVALPVVREFINRVKEKAVGHEVNKSLTPGQEFVKIVRNELVAAMGEENQTLNLAAQPPAVVLMAGLQGAGKTTSVGKLGKFLREKHKKKVLVVSADVYRPAAIKQLETLAEQVGVDFFPSDVGQKPVDIVNAALKEAKLKFYDQLLVDTAGRLHVDEAMMDEIKQVHASINPVETLFVVDAMTGQDAANTAKAFNEALPLTGVVLTKVDGDARGGAALSIRHITGKPIKFLGVGEKTEALEPFHPDRIASRILGMGDVLSLIEDIESKVDRAQAEKLASKLKKGDGFDLNDFLEQLRQMKNMGGMASLMGKLPGMGQIPDNVKSQMDDKVLVRMEAIINSMTMKERAKPEIIKGSRKRRIAAGCGMQVQDVNRLLKQFDDMQRMMKKMKKGGMAKMMRSMKGMMPPGFPGR | 0.157 ± 0.054 | < 0.00845 |
